Data taken from publication PMC4336329 (PLoS ONE, 2015).
Out of some 310,000 compounds screened, about 14,000 (4.5%) showed an effect of 50% or more. The effect is printed as a negative number. The list shows a part of the results.

Target: human ether-à-go-go-related gene (hERG) potassium channel (human, UniProt Q12809)
Assay: primary screen, population patch clamp on CHO cells stably expressing hERG
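Further: peak tail current of the secondary pulse compared with the same well before compound.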

Sequence of human ether-à-go-go-related gene (hERG) potassium channel (Q12809 whole entry, looked up): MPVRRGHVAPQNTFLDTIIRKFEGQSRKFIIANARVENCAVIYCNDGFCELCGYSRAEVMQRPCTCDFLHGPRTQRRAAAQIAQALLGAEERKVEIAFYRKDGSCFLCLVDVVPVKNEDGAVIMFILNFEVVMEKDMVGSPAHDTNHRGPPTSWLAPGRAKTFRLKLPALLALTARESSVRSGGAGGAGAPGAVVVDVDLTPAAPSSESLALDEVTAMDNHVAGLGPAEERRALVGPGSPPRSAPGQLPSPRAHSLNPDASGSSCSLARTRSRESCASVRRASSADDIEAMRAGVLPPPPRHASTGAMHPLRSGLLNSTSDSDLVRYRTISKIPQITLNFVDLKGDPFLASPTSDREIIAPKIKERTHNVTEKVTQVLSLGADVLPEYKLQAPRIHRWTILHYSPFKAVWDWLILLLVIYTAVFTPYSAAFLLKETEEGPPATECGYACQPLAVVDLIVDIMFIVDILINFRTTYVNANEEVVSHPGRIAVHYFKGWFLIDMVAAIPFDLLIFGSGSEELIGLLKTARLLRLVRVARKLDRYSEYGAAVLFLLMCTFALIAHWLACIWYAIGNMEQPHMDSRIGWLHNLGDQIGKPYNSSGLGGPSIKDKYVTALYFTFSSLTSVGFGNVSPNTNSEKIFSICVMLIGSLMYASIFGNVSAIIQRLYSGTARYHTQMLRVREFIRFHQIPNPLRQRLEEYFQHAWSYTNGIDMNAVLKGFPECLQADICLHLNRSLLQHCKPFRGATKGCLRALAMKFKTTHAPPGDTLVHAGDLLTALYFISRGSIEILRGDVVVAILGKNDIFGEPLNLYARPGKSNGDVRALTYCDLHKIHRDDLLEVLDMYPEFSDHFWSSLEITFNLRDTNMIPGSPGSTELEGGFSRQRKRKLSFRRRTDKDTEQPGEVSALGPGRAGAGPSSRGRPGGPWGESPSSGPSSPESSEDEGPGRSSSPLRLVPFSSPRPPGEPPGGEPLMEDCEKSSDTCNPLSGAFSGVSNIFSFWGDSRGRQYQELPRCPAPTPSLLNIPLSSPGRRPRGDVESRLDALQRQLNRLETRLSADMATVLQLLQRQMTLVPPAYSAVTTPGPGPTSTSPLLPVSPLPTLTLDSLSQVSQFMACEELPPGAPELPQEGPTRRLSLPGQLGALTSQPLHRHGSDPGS

Row | Structure (SMILES) | hERG current change (%, negative = inhibition) at 10uM [%]
1 | CN(CC(=O)NC1CCCC1)S(=O)(=O)c1cnc[nH]1 | 25.1
2 | S=C(NCCc1ccccc1)NC1CCCCCC1 | -13.7
3 | COC(=O)c1ccccc1COn1c(=O)c[n+]([O-])c2ccccc21 | -25.7
4 | COc1ccccc1N1CCN(C(c2cc3cc(C)ccc3[nH]c2=O)c2nnnn2C2CCCC2)CC1 (centres unmarked) | -13.1
5 | CCOc1ccc(N2CC(C(=O)Nc3c(C)n(C)n(-c4ccccc4)c3=O)CC2=O)cc1 (centres unmarked) | 22.6
6 | CCOCCCNC(=S)NNC(=O)CCn1nc(C)c(Br)c1C | 6.63
7 | CCOc1ccc2nc(NC(NC(=O)CC)(C(=O)OC)C(F)(F)F)sc2c1 (centres unmarked) | -17.7
8 | Cc1ccc(-c2nnn(CC(=O)N(c3ccccc3)C(C(=O)NC3CCCC3)c3ccco3)n2)o1 (centres unmarked) | -20.9
9 | CN1CCN(CC(=O)N2N=C(c3cccs3)CC2c2ccco2)CC1 (centres unmarked) | -31.1
10 | CCn1ccnc1CN(C)C(=O)c1cc(COc2ccc(OC)c3ccccc23)on1 | -25.9
11 | CNS(=O)(=O)c1ccc(Oc2ccc(S(=O)(=O)NC)cc2)cc1 | 13.2
12 | CN1CCN(c2c([N+](=O)[O-])cnc3ccccc23)CC1.Cl | -11.8
13 | CCc1ccccc1NC(=S)N(CCN(C)C)C(C)c1ccccn1 (centres unmarked) | -30.8
14 | CCOC(=O)COc1ccc2c(c1)C(=O)CC1(CCCCC1)O2 | -1.25
15 | CCCCC(=O)NC(c1cccc([N+](=O)[O-])c1)c1c(OC(C)=O)ccc2ccccc12 (centres unmarked) | -5.12
16 | Cc1cc(=O)oc(C)c1C(=O)Nc1cnc2ccccc2c1 | -21.2
17 | CCS(=O)(=O)N1CCCC(C(=O)NCc2cccc(OC)c2)C1 (centres unmarked) | 0.215
18 | CC(C)c1oc(=O)cc2c1[C@@H](O)[C@H]1OC(=O)[C@@]3(C)CC[C@@H](O)[C@@]2(C)C13 (some centres unmarked) | 10.2
19 | CCOc1ccc(C(=S)N2CCN(C)CC2)cc1 | -82.2
20 | O=C(CN1CCN(S(=O)(=O)c2cccc(Br)c2)CC1)N1CCCCC1 | -14.8
21 | O=C(Cc1ccc(Br)cc1)N1CCN(Cc2ccccc2)CC1 | -30.9
22 | O=C(COc1ccc(C(=O)c2ccccc2)cc1)NC1CCCCCC1 | -21.9

Row | Structure (SMILES) | hERG current change (%, negative = inhibition) at 10uM [%]
23 | O=C(CSc1nnc(-c2ccc(Cl)cc2Cl)n1C1CCCCC1)NC1CCS(=O)(=O)C1 (centres unmarked) | -23.2
24 | Cc1ccc(OCC(=O)NC2CCS(=O)(=O)C2)cc1 (centres unmarked) | 1.19
25 | CN(Cc1ccccc1F)C(=O)CCCNC(=O)c1ccc(Cl)cc1 | -19.8
26 | CC(C)OCCCNC(=O)C(=O)N/N=C/c1ccc(OCc2ccccc2)cc1 | 13.2
27 | COCCCN(CC(=O)Nc1ccc(N2CCOCC2)cc1)S(=O)(=O)c1ccc(Cl)cc1 | -1.73
28 | COc1ccc(N2C(=O)C3C4C=CC(C5CC45)C3C2=O)c([N+](=O)[O-])c1 (centres unmarked) | 6.48
29 | O=C1NC(=S)S/C1=C\c1ccc2ccccc2c1 | 18.7
30 | Cc1cccc(NC(=O)c2ccc3c(Cl)c4c(nc3c2)CCCC4)n1 | -1.74
31 | Cn1c(N)c(C(=O)COC(=O)/C=C/c2cccc(C(F)(F)F)c2)c(=O)n(C)c1=O | -2.29
32 | Cc1ccccc1C(=O)Oc1ccccc1C(=O)N1CCOCC1 | -1.36
33 | Cc1ccccc1Nc1nc(N)nc(-c2oc3ccccc3c2C)n1 | 4.69
34 | C=CCn1c(=O)c(C(=O)NCc2ccc(Cl)cc2)c(O)c2ccccc21 | 13.4
35 | CCOc1ccc(CNC(=O)C2CC(=O)N(C3CCCC3)C2)cc1OC (centres unmarked) | 9.05
36 | CCOC(=O)CN1C(=O)S/C(=C/c2cccc([N+](=O)[O-])c2O)C1=O | 9.42
37 | Cc1cc(C)n(-c2nc(C(F)(F)F)nc3ccccc23)n1 | 13
38 | COc1ccc(S(=O)(=O)N(C)c2ccc(C(=O)Nc3cccnc3)cc2)cc1 | -40.3
39 | COc1cc2c(cc1N/C=C(\C#N)c1nc(-c3ccc(F)cc3)cs1)oc1ccccc12 | -46.5
40 | CCn1cc(S(=O)(=O)NCc2ccc(OC)cc2)cn1 | 4.14
41 | O=C(Nc1nc2ccccc2[nH]1)c1cccc(Cl)c1 | 17.5
42 | Cc1c(C(=O)N2CCCCC2)c(S(=O)(=O)NCc2ccccc2Cl)c(C)n1C | 5.54
43 | Cc1nn2cc(-c3ccc(-c4ccccc4)cc3)nc2s1 | 12.4
44 | COc1cccc(NC(=O)Cn2c3ccccc3c3nc4n(c(=O)c32)CCS4)c1 | 0.357

Row | Structure (SMILES) | hERG current change (%, negative = inhibition) at 10uM [%]
45 | Cc1cc(C(=O)OCC(=O)NC(=O)c2cccn2C)c2ccccc2n1 | 15.7
46 | NNc1nc2c(-c3cccc(C(F)(F)F)c3)nnn2c2ccccc12 | 20.5
47 | C/C(=N\NC(=O)Cc1ccc(Cl)cc1)c1ccccn1 | -14.6
48 | COc1ccccc1N1CCN(S(=O)(=O)c2c(C)[nH]c(C)c2C(=O)N2CCCC2)CC1 | 12.4
49 | CN1CCN(/N=C/c2ccc(Cl)c(Cl)c2)CC1 | -36.4
50 | CCn1c(CNC(=O)c2ccccc2F)nnc1SCC(=O)NC1CCCCC1 | 13.6
51 | CCOC(=O)CSc1nc2ccccc2c(=O)n1CCC(=O)NCCc1ccc(OC)c(OC)c1 | -23.2
52 | COc1ccc(OC)c(CNC(=O)C2CCN(S(=O)(=O)N3CCCCC3)CC2)c1 | -8.39
53 | Cc1cc(=O)[nH]c(N/N=C/C2=C(N3CCOCC3)C(=C\c3ccc(Cl)cc3)/CC2)n1 | -2.89
54 | O=C(NCC1CCCO1)c1ccc2c(=O)n(CC3CCCO3)c(=S)[nH]c2c1 (centres unmarked) | 6.52
55 | COc1ccc(OC)c(-n2c(-c3cc(-c4ccccc4)n[nH]3)n[nH]c2=S)c1 | 14.9
56 | COc1ccc(S(=O)(=O)NCCS(=O)(=O)N2CCN(c3ccccc3)CC2)cc1 | -10
57 | O=C(N/N=C/c1ccc2nccnc2c1)c1cccc([N+](=O)[O-])c1 | -9.36
58 | CCCn1c(=O)c2c(nc3n2CCCN3CCc2ccc(OC)c(OC)c2)n(C)c1=O | -23.7
59 | O=C(N/N=C1\CCCc2ccccc21)c1cccc([N+](=O)[O-])c1 | -11
60 | Cc1cc(N2C(=O)C=CC2=O)c([N+](=O)[O-])cc1C | -3.55
61 | NC(=O)CC(NC(=O)Cc1ccc(Cl)cc1)c1ccc(NC2CCN(Cc3ccccc3)CC2)c([N+](=O)[O-])c1 (centres unmarked) | -18.5
62 | O=C(CC1C(=O)NCCN1C(=O)Nc1ccccc1)Nc1cc(Cl)ccc1Cl (centres unmarked) | 2.57
63 | O=C(NCCc1ccccc1C(F)(F)F)C1CCC(=O)N(CCCN2CCCC2=O)C1 (centres unmarked) | 17.9
64 | O=C(CCNC(=O)c1ccc(Br)o1)NCc1ccc(Cl)cc1 | -22.4
65 | COc1cc(OC)cc(C(=O)N2CCC(n3c(C)nc4cc(F)ccc43)CC2)c1 | -59
66 | NC1=NC(=O)S/C1=C\c1ccc(F)cc1 | 4.55

Row | Structure (SMILES) | hERG current change (%, negative = inhibition) at 10uM [%]
67 | CSc1nnc(-c2ccc(S(=O)(=O)N3CCCCC3)cc2)o1 | -2.26
68 | Cc1cccc(C)c1NC(=O)C1C2C=CC(C2)C1C(=O)NCc1ccccn1 (centres unmarked) | -0.849
69 | Cn1c(Cn2c(=O)sc3ccccc32)nnc1SCC(=O)Nc1ccc(F)cc1 | 7.02
70 | Fc1cccc(COc2ccccc2CNc2ccccc2)c1 | 0.968
71 | COc1ccc(CCNC(=O)CSc2nc3ccccc3c3nc(CCN4CCCCC4)nn23)cc1OC | -14.3
72 | COc1ccc(CN(CC2CCCO2)C(=O)CN2C(=O)C(C)Oc3ccc(C)cc32)cc1OC (centres unmarked) | -26.7
73 | CCOC(=O)N1CCN(CC(=O)c2ccc(O)c(C)c2O)CC1 | 20.9
74 | CN(C)c1ccc(/C=c2\sc3n(c2=O)CCCN=3)cc1 | 1.12
75 | CN1C(=O)C(C)(C)c2cc(S(=O)(=O)N3CCN(c4cccc(Cl)c4)CC3)ccc21 | -15.5
76 | C[C@@H](C(=O)NCc1ccccc1)N1C(=O)C2CC=CCC2C1=O (some centres unmarked) | 0.932
77 | CC(=O)N(Cc1ccc(F)cc1)Cc1nc2ccccc2c(=O)[nH]1 | -21
78 | CCOC(=O)c1cccnc1SCC(=O)NC(C)CC (centres unmarked) | 10.4
79 | Cc1ccc(-c2nnn(CC(=O)N(Cc3ccco3)C(C(=O)NC(C)(C)C)c3ccncc3)n2)o1 (centres unmarked) | 8.07
80 | Cc1ccccc1C(=O)Nc1ccc(CN2CCOCC2)cc1 | 7.71
81 | O=S1(=O)CCO[C@H]2Cc3ccccc3[C@H]2N1Cc1ccc(F)cc1 | -20.4
82 | CC(=O)c1c(C)[nH]c(C(=O)O)c1C | 5.08
83 | COCC1CCN(C(=O)CCc2nnc(C3(c4ccc(Cl)cc4)CCC3)o2)CC1 | -14.9
84 | CCOC(=O)N1CCN(S(=O)(=O)c2ccc3c(c2)C(C)C(=O)N3)CC1 (centres unmarked) | 2.26
85 | CCCCNC(=S)Nc1cccc2cnccc12 | -4.25
86 | Cc1cc2nc3c(c(C(F)(F)F)n2n1)CCCC3 | 15.9
